Reference: PubChem BioAssay AID504832 (National Center for Advancing Translational Sciences (NCATS), 2011)
The campaign covered roughly 310,000 compounds. About 18,000 (5.8%) were called active. Inconclusive results, whose numbers are uncertain, are shown with a selection of clear calls. Calls follow the shape of the dose curve; as a rule, active = well fitted inhibition curve with a large enough effect; inconclusive = small, poorly fitted or top-dose-only effect, or another doubt; inactive = no such curve, though single readings can be large or run the other way. No potency is given beside an inconclusive call; the fits are too rough.

Experiment: Primary qHTS for delayed death inhibitors of the malarial parasite plastid, 48 hour incubation
Details: P. falciparum luciferase growth in erythrocytes; series mostly up to 28.7 µM
Summary of the method: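 Luciferase-expressing parasites in RBCs, 2% Hct / 0.1% parasitemia final; RPMI 1640 + 0.5% Albumax; 37 C, 5% CO2, one generation; luminescence read-out, lower signal = inhibition.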
% is scaled to controls: 0 for no effect and ±100 for the full control effect; potency is read from the fitted curve at half-maximal effect; tags tell the direction and shape of the fitted curve.

Question: For `CCOC(=O)c1ccc(NC(=O)C2(c3ccc(Cl)cc3)CCCC2)cc1`, which Potency is on record?
Answer: inconclusive [inhibitor, partial curve, poor fit]

Question: With `Cc1ccc(O)c(N=Nc2ccc(S(=O)(=O)N3CCOCC3)cc2)c1` as the compound, how does the Potency read?
Answer: active: 5.22 µM

Question: For `CCCCOc1ccc(C(=O)NCC(=O)NCC(c2ccc(F)cc2)N2CCOCC2)cc1` (centres undefined), which Potency is on record?
Answer: inconclusive [inhibitor, single point]

Question: For `CCOC(=O)C(Cc1ccc(NC(C)=O)cc1)N1C(=O)c2ccccc2C1=O` (centres undefined), which Potency is on record?
Answer: inactive

Question: Which Potency does the source give for `COc1ccccc1NC(=O)CSc1nnnn1C1CCCC1` here?
Answer: inactive

Question: Which Potency does the source give for `CN(C)CCCOC(=O)C1c2ccccc2Oc2ccccc21` here?
Answer: inactive

Question: Which Potency does the source give for `N/C(=N\N=C/c1ccc(F)cc1)N/N=C\c1ccc(F)cc1` here?
Answer: active: 0.738 µM

Question: Which Potency does the source give for `Cc1ccc(-c2c(C)n([O-])c3c([n+]2=O)CCCCC3)cc1` here?
Answer: inactive

Question: Which Potency does the source give for `Cc1cc(C)c(S(=O)(=O)Cc2ccccc2)c(=O)[nH]1` here?
Answer: inactive

Question: For `NS(=O)(=O)OCCCCCc1ccccc1`, which Potency is on record?
Answer: inactive

Question: With `CN(CC(=O)O)c1ccc(C(F)(F)F)cc1[N+](=O)[O-]` as the compound, how does the Potency read?
Answer: inactive

Question: Which Potency does the source give for `Nc1nnc(SCC(=O)Nc2cccc(S(=O)(=O)N3CCCCC3)c2)s1` here?
Answer: inconclusive [inhibitor, single point]

Question: For `O=S(=O)(c1ccc(OCC(O)CNCc2ccco2)c(Cl)c1)N1CCOCC1` (centres undefined), which Potency is on record?
Answer: active: 8.28 µM

Question: Which Potency does the source give for `Cc1ccc(CSCC2Nc3ccc(C(=O)N4CCN(c5ccc(F)cc5)CC4)cc3NC2=O)cc1` (centres undefined) here?
Answer: inactive

Question: Which Potency does the source give for `CCOC(=O)c1ccc(NC(=S)N(CCCN2CCCC2)Cc2ccco2)cc1` here?
Answer: inconclusive [inhibitor, partial curve, poor fit]

Question: Which Potency does the source give for `O=C1CCCC/C1=C/NCc1ccc(F)cc1` here?
Answer: inactive

Question: With `COc1ccc(C(=O)/C(Br)=C/C(=O)O)cc1` as the compound, how does the Potency read?
Answer: inconclusive [inhibitor, single point]

Question: For `COc1ccc(CNC(=O)CN(C(=O)c2csnn2)c2ccc(C(C)=O)cc2)cc1`, which Potency is on record?
Answer: active: 10.4 µM

Question: With `CN(Cc1ccccc1F)C(=O)C(Cc1ccccc1)NC(=O)c1ccccc1` (centres undefined) as the compound, how does the Potency read?
Answer: inconclusive [inhibitor, single point]

Question: With `Cc1cc(C)c(NC(=O)CNC(=O)COC(=O)Cc2ccccc2C)c(C)c1` as the compound, how does the Potency read?
Answer: inactive

Question: With `COc1ccc(N2C(=O)c3ccccc3NC2c2ccc(OC)c(Cn3cc([N+](=O)[O-])cn3)c2)cc1` (centres undefined) as the compound, how does the Potency read?
Answer: inconclusive [inhibitor, single point]

Question: Which Potency does the source give for `Cn1c(Sc2ccccc2Cl)c(C=O)c2ccccc21` here?
Answer: inconclusive [inhibitor, partial curve]

Question: For `CCOc1ccccc1/C=C/c1onc(C)c1S(=O)(=O)N1CCC(C(=O)NC(C)C)CC1`, which Potency is on record?
Answer: inconclusive [inhibitor, partial curve]

Question: Which Potency does the source give for `Cc1ccnc(NC(=O)c2cccc(S(=O)(=O)N3CCN(c4ccc(F)cc4)CC3)c2)c1` here?
Answer: inconclusive [inhibitor, partial curve, poor fit]

Question: Which Potency does the source give for `COCCCNc1nc2c(-c3ccc(C)cc3)nnn2c2ccccc12` here?
Answer: inactive

Question: With `CC(C)c1ccccc1NC(=S)N1CCN(S(=O)(=O)c2cccs2)CC1` as the compound, how does the Potency read?
Answer: inconclusive [inhibitor, full curve, poor fit]

Question: Which Potency does the source give for `Cn1nc(C(F)(F)F)c(-c2ccc(F)cc2)c1NC(=O)c1ccco1` here?
Answer: inconclusive [inhibitor, single point]

Question: With `CC(C)n1cc(/C=N\NC(=O)c2cc3c(ccc4ccccc43)o2)c2ccccc21` as the compound, how does the Potency read?
Answer: inactive

Question: Which Potency does the source give for `COc1ccccc1N1C(N)=NC(N)=NC1(C)C` here?
Answer: inconclusive [inhibitor, partial curve, poor fit]

Question: Which Potency does the source give for `O=C(N/N=C/c1cc(Cl)ccc1O)c1ccncc1` here?
Answer: active: 2.33 µM

Question: Which Potency does the source give for `COc1ccc(Nc2ccccc2NC(=O)c2ccccc2Br)cc1` here?
Answer: active: 1.65 µM

Question: Which Potency does the source give for `O=C(Nc1ccc(CN2CCCCC2)cc1)c1cc(Br)ccc1Cl` here?
Answer: active: 11.7 µM

Question: Which Potency does the source give for `CCn1c(C(O)c2ccc(C)cc2)nc2ccccc21` (centres undefined) here?
Answer: inconclusive [inhibitor, partial curve]

Question: Which Potency does the source give for `C=CCNC(=O)Cn1c(=O)c2c(ncn2CCC(C)C)n(Cc2ccccc2)c1=O` here?
Answer: inconclusive [inhibitor, partial curve, poor fit]

Question: With `Cc1nn(C(C)C(=O)NCCCc2ccccc2)c(=O)c2nn(-c3ccccc3)c(C)c12` (centres undefined) as the compound, how does the Potency read?
Answer: inactive

Question: For `CN(C)CCn1c2c(c(SCC(=O)Nc3ccc4c(c3)OCCO4)nc1=O)CCCC2`, which Potency is on record?
Answer: inconclusive [inhibitor, single point]

Question: For `Cc1cc(NC2CCCC2)n2nc(C)c(-c3ccccc3)c2n1`, which Potency is on record?
Answer: inconclusive [inhibitor, single point]

Question: For `Cc1cc2nnc(SCCCCN3C(=O)c4ccccc4C3=O)n2c2ccccc12`, which Potency is on record?
Answer: inconclusive [inhibitor, partial curve, poor fit]

Question: Which Potency does the source give for `Cc1ccc(OCC(=O)Nc2cc(C(C)(C)C)on2)cc1C` here?
Answer: active: 5.22 µM

Question: For `Cc1nc(SCC(=O)Nc2nccs2)c(C#N)c(C)c1C`, which Potency is on record?
Answer: inactive

Question: With `CCOC(=O)c1cc(-c2ccc(C)o2)n[nH]1` as the compound, how does the Potency read?
Answer: inactive

Question: With `O=C(CN1C(=O)CCS(=O)(=O)c2ccccc21)NCCc1ccccc1` as the compound, how does the Potency read?
Answer: inactive

Question: Which activity change, negative = inhibition does the source give for `Cc1nnsc1Sc1ccccc1C(=O)O` here?
Answer: inactive: -39.2% [at 5.75 µM]

Question: For `O=S(=O)(NCC(c1ccc2c(c1)OCO2)N1CCOCC1)c1ccccc1` (centres undefined), which Potency is on record?
Answer: inactive

Question: For `COc1ccc(OC)c(Nc2cc(-c3ccccc3)nc(N)n2)c1`, which Potency is on record?
Answer: inconclusive [inhibitor, single point]

Question: With `Cc1cccc(NC(=O)CSc2cc(C)c(C#N)c3nc4ccccc4n23)c1` as the compound, how does the Potency read?
Answer: inconclusive [inhibitor, single point]

Question: Which Potency does the source give for `CC(C)Cc1nnc(NC(=O)CCC(=O)NC2CCCC2)s1` here?
Answer: inconclusive [inhibitor, single point]

Question: With `CCN(CC(=O)NCc1cccs1)C(=O)c1ccc(S(=O)(=O)N(CC)c2ccccc2)cc1` as the compound, how does the Potency read?
Answer: inconclusive [inhibitor, partial curve, poor fit]

Question: For `S=C(NCCN1CCOCC1)Nc1ccc(-c2nc3ccccc3[nH]2)cc1`, which Potency is on record?
Answer: inconclusive [inhibitor, single point]
